# In article PMC4336329 (PLoS ONE, 2015):
# Hit rate of the full screen: of about 310,000 compounds, about 2,200 (0.71%) showed an effect of 50% or more. Effects have a minus sign here. This is one part of the list.
# Target: human ether-à-go-go-related gene (hERG) potassium channel (human, UniProt Q12809)
# Assay: primary screen, population patch clamp on CHO cells stably expressing hERG
# Sequence of human ether-à-go-go-related gene (hERG) potassium channel (Q12809 whole entry, looked up): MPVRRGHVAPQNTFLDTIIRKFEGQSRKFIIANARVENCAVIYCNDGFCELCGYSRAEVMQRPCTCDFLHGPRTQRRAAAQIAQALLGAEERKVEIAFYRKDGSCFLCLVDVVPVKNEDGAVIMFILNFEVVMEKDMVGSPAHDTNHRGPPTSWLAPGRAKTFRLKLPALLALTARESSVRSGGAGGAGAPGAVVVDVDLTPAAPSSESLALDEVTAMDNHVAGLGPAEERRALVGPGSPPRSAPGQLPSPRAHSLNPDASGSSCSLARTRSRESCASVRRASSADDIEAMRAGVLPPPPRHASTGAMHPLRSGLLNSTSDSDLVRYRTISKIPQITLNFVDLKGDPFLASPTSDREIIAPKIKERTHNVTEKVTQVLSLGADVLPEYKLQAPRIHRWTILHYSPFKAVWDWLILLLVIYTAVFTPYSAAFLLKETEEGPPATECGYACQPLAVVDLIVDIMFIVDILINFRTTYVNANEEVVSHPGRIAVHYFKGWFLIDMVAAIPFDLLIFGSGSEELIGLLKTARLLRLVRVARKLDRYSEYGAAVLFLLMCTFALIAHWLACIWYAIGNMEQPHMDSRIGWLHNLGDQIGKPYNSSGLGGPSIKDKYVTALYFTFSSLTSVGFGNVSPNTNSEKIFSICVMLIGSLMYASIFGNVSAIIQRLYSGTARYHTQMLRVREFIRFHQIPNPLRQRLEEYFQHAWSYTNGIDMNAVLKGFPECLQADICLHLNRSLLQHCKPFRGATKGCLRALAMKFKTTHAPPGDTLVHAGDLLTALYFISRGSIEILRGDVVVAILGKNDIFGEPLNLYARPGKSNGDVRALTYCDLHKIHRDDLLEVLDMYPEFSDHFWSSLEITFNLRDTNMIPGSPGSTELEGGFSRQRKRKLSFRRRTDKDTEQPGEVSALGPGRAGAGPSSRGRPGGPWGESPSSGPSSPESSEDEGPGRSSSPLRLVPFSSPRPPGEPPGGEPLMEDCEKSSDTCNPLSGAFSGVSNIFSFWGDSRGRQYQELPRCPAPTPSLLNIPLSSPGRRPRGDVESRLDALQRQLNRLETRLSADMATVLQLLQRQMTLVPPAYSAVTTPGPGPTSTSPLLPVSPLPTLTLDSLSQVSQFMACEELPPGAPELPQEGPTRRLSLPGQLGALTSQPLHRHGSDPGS
row,Compound,"hERG current change (%, negative = inhibition) at 1uM [%]"
1,Cc1ccc(-c2cc(C(=O)N(C)Cc3cnn(C)c3C)c3cc(Br)ccc3n2)cc1,-2.42
2,O=C(O)c1ccc(Nc2nc3ccccc3nc2NS(=O)(=O)c2cccs2)cc1,10.4
3,CC(C)(CO)NC(=O)CC1C(=O)NCCN1Cc1ccc(-c2ccccc2)cc1 (stereo not shown),10.9
4,O=C(CN1C(=O)NC2(CCOc3ccccc32)C1=O)NCc1ccc(F)cc1 (stereo not shown),2.09
5,CC(=O)C1=C(c2ccccc2)NC(=O)NC1c1ccc(O)c(O)c1 (stereo not shown),6.85
6,Cc1cccc(OCCC(=O)Nc2nnc(C)s2)c1,7.86
7,Cc1csc(SCC(=O)Nc2ccc(Cl)cn2)n1,9.06
8,CCC1(c2ccccc2)NC(=O)N(CC(=O)N(C)Cc2c(F)cccc2Cl)C1=O (stereo not shown),7.96
9,CC(C)(C)Nc1cccccc1=O,11
10,Cn1c(=O)c2c(nc(NCc3ccccc3)n2CC(N)=O)n(C)c1=O,15.8
11,C=CCn1c(CSCc2ccc(Cl)cc2)nnc1SCC(=O)NCc1ccccc1,-14.8
12,CN(C)C(=S)SCC(=O)Nc1cccc(C(F)(F)F)c1,-23.4
13,CCOC(=O)C1(CCOc2ccccc2)CCN(C(C)CSC)CC1 (stereo not shown),-10.9
14,Nc1nonc1-c1noc(-c2ccccc2Br)n1,-13.6
15,Cc1cc2nc(-c3ccc(SCC(=O)N4CCN(C(=O)c5ccco5)CC4)nc3)[nH]c2cc1C,7.95
16,CC(=O)N(C)C1=C(O)c2ccccc2C(=O)C1=O,18
17,CCCCNC(=O)c1onc(CSc2ccc(OC)cc2)c1C(=O)O,-1.41
18,O=C(COC(=O)/C=C/c1ccccc1)NC(=O)NCc1ccccc1,4.63
19,Cc1nn(-c2ccccc2)c(N2CCCC2)c1/C=N/NC(=S)Nc1ccc(F)cc1,6.02
20,Cc1sc2ncnc(N3CCC(C(=O)N(C)CC(=O)Nc4ccccc4Br)CC3)c2c1C,-8.93
21,Cc1ccc(-n2nc(-c3ccccc3)cc2Nc2ccccc2N)cc1,14.3
22,CS(=O)(=O)N(Cc1ccccc1)c1ccc(C(=O)NN=C2CCCCCC2)cc1,0.887

row,Compound,"hERG current change (%, negative = inhibition) at 1uM [%]"
1,Cc1cccc(S(=O)(=O)N2CN(Cc3ccco3)c3nc4ccccc4nc32)c1,4.44
2,O=S(=O)(NCc1ccccc1F)c1cccc(S(=O)(=O)N2CCOCC2)c1,4.35
3,COc1cc(-c2nnc(SCC3(c4ccc(Br)cc4)OCCO3)o2)cc(OC)c1OC,8.77
4,Br.N=c1n(CCN2CCCCC2)c2ccccc2n1CC(=O)c1cccs1,16.6
5,COc1ccc(-c2nc(CSCC(=O)N3CCN(C4CCCCC4)CC3)c(C)o2)cc1OC,-14.3
6,COc1ccc(F)cc1-c1nc(N)nc(N)n1,11.2
7,O=C(Nc1ccccc1N1CCN(c2ccccc2)CC1)c1ccccc1,10.5
8,Cc1noc(C)c1S(=O)(=O)N1CCCC(C(=O)NC2CCCCC2)C1 (stereo not shown),8.61
9,CCCN(C(=O)C1CCN(S(=O)(=O)c2ccc(OC)c(OC)c2)CC1)C1CCS(=O)(=O)C1 (stereo not shown),14.2
10,Cc1ccc(S(=O)(=O)N2CCN(C(C)C(=O)N3CCCc4ccccc43)CC2)cc1 (stereo not shown),0.539
11,Cc1ccc(-c2nc(N3CCOCC3)sc2C(=O)N2CCOCC2)cc1,8.16
12,CC1(c2ccccc2)NC(=O)N(CC(=O)Nc2ccccc2C(=O)NC2CC2)C1=O (stereo not shown),-17.8
13,CCN1C(=O)c2cccc3c(NC(=O)C(C)(C)C)ccc1c23,13.1
14,Cc1cc(C)n(/N=C/c2cccc([N+](=O)[O-])c2)c(=O)c1,12.3
15,CC(C)Oc1ccc(C(=O)N/N=C/c2ccc(-c3ccc(S(=O)(=O)Nc4ncccn4)cc3)o2)cc1,14.8
16,CN(CCc1cnn(C)c1)Cc1nc(Cc2ccccc2)no1,6.78
17,COc1c(C)cc(C(=O)C2CCCN(Cc3cccc(O)c3)C2)cc1C (stereo not shown),5.96
18,C/C=C/CSc1nc2c(c(=O)[nH]c(=O)n2C)n1CCC,-6.37
19,COCCCNC(=O)Cn1nnc(-c2ccc(NC(=O)c3ccccc3OC)cc2)n1,4.37
20,O=C(NCCN1CCCCCC1)c1ccc(N2CCCC2=O)cc1,2
21,COc1ccc(Br)cc1S(=O)(=O)N(CC(=O)N1CCN(C)CC1)c1ccccc1,4.85
22,CC(C)(C)c1ccc(C(=O)Nc2ccc(C(=O)N3CCOCC3)cc2)cc1,4.61

row,Compound,"hERG current change (%, negative = inhibition) at 1uM [%]"
1,O=C(CCCN1C(=O)c2ccccc2C1=O)N1CCC(c2ccccc2)C1 (stereo not shown),-16.5
2,CCCCOc1ccc(C(=O)C(CN2CCOCC2)c2ccccc2)cc1 (stereo not shown),9.92
3,CC1=C(C(=O)NC2CCCCC2C)C2(CCC(C)CC2)OC1=O (stereo not shown),2.07
4,COc1c(C)cc(Br)cc1C(=O)Nc1cccc(-c2nc3ncccc3o2)c1,-7.42
5,O=C(NCC1CCCO1)c1cc2c([nH]c3ccccc32)c(-c2ccc(F)cc2)n1 (stereo not shown),9.15
6,Cc1ccc(-n2c(SCC(N)=O)nnc2-c2ccccn2)cc1C,13
7,Cc1cccc(-c2noc(C(C)NC(=O)c3ccco3)n2)c1 (stereo not shown),9.37
8,O=C(COC(=O)c1cc(=O)[nH]c(=O)[nH]1)Nc1cccc(S(=O)(=O)N2CCCCC2)c1,9.85
9,O=C(O)c1ccc(Nc2cccc(F)c2)c([N+](=O)[O-])c1,22.2
10,CCOCCCNS(=O)(=O)c1ccc(Br)cc1,9.76
11,COc1cc(C)c(S(=O)(=O)N2CCOCC2)cc1C(C)C,7.69
12,CCOC(=O)c1c(NC(=O)CSc2nc3ccccc3c(=O)n2-c2ccc(F)cc2)sc(C(C)=O)c1C,10.3
13,Cc1ccc(S(=O)(=O)CCSc2nccn2C)cc1,2.46
14,COc1cccc(C(O)c2cnc(C(C)C)n2C)c1 (stereo not shown),9.67
15,Cc1nccc2c1[nH]c1ccccc12,10.2
16,CCN(CC)S(=O)(=O)c1cccc(-c2n[nH]c(=S)n2/N=C/c2ccc(OC(F)F)cc2)c1,9.73
17,Cc1cccc2c(=O)c(C(=O)NCc3cccs3)c[nH]c12,17.3
18,CCNc1nc(-c2ccc(Cl)cc2)cs1,15.6
19,CCOC(=O)c1cccc(S(=O)(=O)N(CCO)Cc2cc3cc(OC)ccc3[nH]c2=O)c1,4.92
20,O=C(Nc1cccnc1)c1scc2c1OCCO2,11.7
21,Cc1nc(N2CCN(S(=O)(=O)c3ccccc3C#N)CC2)c2c(-c3ccccc3)csc2n1,1.14
22,COc1ccnc(CS(=O)c2nc3cc(OC(F)F)ccc3[n-]2)c1OC.[Na+] (stereo not shown),-22.2

row,Compound,"hERG current change (%, negative = inhibition) at 1uM [%]"
1,C/C(Cc1ccccc1)=N\NC(=O)CNC(=O)COc1ccccc1,9.94
2,O=C(NCC1CCCO1)c1cccc(F)c1 (stereo not shown),8.93
3,CCCN1CCN(C(=O)CN2C(=O)CC(C)(C)S(=O)(=O)c3ccccc32)CC1,14.5
4,COC(=O)c1ccc(-c2ccc(/C=N/NC(=O)Cc3nnc(N)s3)o2)cc1,11.1
5,O=C(C1Cc2ccccc2CN1S(=O)(=O)c1ccc(F)cc1)N1CCCCC1 (stereo not shown),0.186
6,Clc1cccc(Cl)c1Cn1cnc2c(N3CCCCCC3)ncnc21,3.81
7,CC1Oc2ccccc2N(CC(=O)c2ccccc2)C1=O (stereo not shown),-0.683
8,Cn1c(SCc2nc3ccccc3[nH]2)nnc1-c1cccs1,-8.39
9,Cc1nc(C(F)(F)F)nc(Nc2ccc(Br)cc2)c1C#N,13.1
10,CN(CC(=O)NCc1ccncc1)S(=O)(=O)c1ccc2ccccc2c1,2.12
11,CCCCC(=O)Nc1ccc(NC(=O)C2CC2)nc1,8.39
12,Cc1ccn2cc(-c3cccc(NC(=O)c4cccs4)c3)nc2c1,-2.71
13,Cc1cc(NC(=O)CSc2nc(=O)n3cc(Cl)ccc3n2)no1,8.14
14,CC1=Nc2ccc(Br)cc2C(c2ccccc2)N1CC(=O)NN (stereo not shown),7.63
15,COc1ccc(-n2ncc3c(=O)n(CC(=O)N4c5ccccc5CC4C)cnc32)cc1 (stereo not shown),0.506
16,O=C(O)CC(NC(=O)C(c1ccccc1)c1ccccc1)c1ccco1 (stereo not shown),14.6
17,Cc1c(OCc2ccc([N+](=O)[O-])cc2)ccc2c3c(c(=O)oc12)CCC3,3.74
18,Cc1ccccc1-n1c(SCc2csc(Nc3ccccc3)n2)nnc1-c1cccnc1,-4.16
19,COc1ccc(C/C(C)=N/NC(=O)c2cc(C)oc2C)cc1,13.8
20,CCCS(=O)(=O)C/C(N)=N/OC(=O)c1ccccc1Cl,10.2
21,Cc1ccc(NC(=O)COC(=O)/C=C/c2ccc(Br)o2)cc1S(=O)(=O)N(C)C,12.1
22,C=CCSc1nnc(NC(=O)CSc2nc3ccccc3[nH]2)s1,11.8
